These results are taken from PubChem BioAssay AID463173 (ICCB-Longwood Screening Facility, Harvard Medical School, 2010).

The structures appear in SMILES notation. The whole screen tested about 52,000 compounds, of which about 1,700 (3.3%) were called active. No stated cut-off is given here; in the data, active means survival mostly below about 52% (no sharp cut-off); inactive means mostly above about 56%. Some of the results follow.

The test system of the assay is Wild type. Kind of assay: growth inhibition of S. aureus wild type versus tarO mutant, primary screen, teichoic acid synthesis inhibitors, RN4220, OD600 (AID 463173). As to conditions: S. aureus RN4220 wild type/DeltatarO growth, OD600, 18 h, stronger effect = lower value, screened at 18.75 µg/mL (by protocol).
For the compound `O=C(NCCc1ccccc1Cl)c1ccc2c(c1)nc1n2CCOC1`, the survival was inactive: 76%.

With `CN(C)S(=O)(=O)n1cc(/C=C(\NC(=O)c2ccccc2Cl)C(=O)NCCCn2ccnc2)c2ccccc21`, the survival was inactive: 103%.

In the case of `O=C(NCCc1ccccc1)C1(c2cccs2)CCOCC1`, the survival is inactive: 73%.

Take `CCN(CC)CCNC(=O)c1nn(-c2ccc(OC)c(Cl)c2)c(=O)c2c1c1ccccc1n2C`: the survival was inactive: 78%.

On to `COc1cc(OC)cc(-c2nc3nc(C)c(CCC(=O)Nc4ccc(F)cc4F)c(C)n3n2)c1`, for which the survival is inactive: 122%.

Turning to `COC(=O)CNc1cccc(C(F)(F)F)c1`, the survival is inactive: 96%.

As to `COc1cccc(C(=O)N2c3nc(-c4ccco4)nn3C3(CCCCC3)[C@@H]3CCCC[C@@H]32)c1`, the survival was inactive: 107%.

Turning to `CCc1nn(C(C)C(=O)N2CCN(c3cccc(C(F)(F)F)c3)CC2)c(=O)c2cc3occc3n12` (configuration not stated), the survival was inactive: 101%.

On to `CCCNC(=O)c1c(C)nn(-c2cccc(C)c2)c1-n1cccc1`, for which the survival was inactive: 47%.

For the compound `Cc1ccc(Cn2cc(C(=O)c3ccc(F)cc3)c(=O)c3cc4c(cc32)OCCO4)cc1`, the survival was inactive: 84%.

With `CCc1ccccc1NC(=O)CSCc1cnn(-c2ccccc2)c1-n1cccc1`, the survival is inactive: 77%.

Take `CCOc1ccccc1CNCCNC(=O)c1nonc1N`: the survival is inactive: 128%.

With `COc1cc(OC)c(NC(=O)CC(c2cccs2)N2Cc3ccccc3C2=O)cc1Cl` (configuration not stated), the survival was inactive: 101%.

In the case of `Cc1ccc2ncc3c(-c4ccc(F)cc4)nn(-c4cccc(F)c4)c3c2c1`, the survival is inactive: 78%.

`Cc1ccccc1Nc1sc(C(=O)c2ccccc2)c(N)c1C(=O)NCc1ccc(Cl)cc1`: the survival was inactive: 73%.

For the compound `Cc1ccc2c(c1)c1c(c(=O)n(-c3ccccc3C)c(=O)n1CC(=O)N1CCCC1)n2C`, the survival is inactive: 85%.

With `C=CCN1C(=O)CSC1=Nc1ccc(C(=O)O)cc1`, the survival is inactive: 106%.

Turning to `CCOCCn1ccc2c(OCC(=O)NCc3ccc(C)cc3)cccc2c1=O`, the survival was inactive: 95%.

For `Cc1ccccc1NC(=O)CSc1nnc(COc2ccc(Cl)cc2)o1`, the survival is inactive: 86%.

In the case of `COc1ccc(-c2cn3nc(N4CCCC(C(=O)Nc5cccc(Cl)c5C)C4)sc3n2)cc1` (configuration not stated), the survival was inactive: 85%.

`CN(C)CCNC(=O)c1ccc2c(c1)N(Cc1ccccc1)C(=O)c1ccccc1S2(=O)=O`: the survival is inactive: 98%.

As to `CCCSc1ncc(Cl)c(C(=O)NCc2ccc(OC)cc2)n1`, the survival was inactive: 89%.

For the compound `CC(CN1CCCC1)OC(=O)c1ccc(F)cc1` (configuration not stated), the survival was inactive: 109%.

For the compound `COCCCNC(=O)N1[C@H](c2cccs2)[C@@H](C)C(=O)[C@@H](C)[C@@H]1c1cccs1`, the survival was inactive: 74%.

With `O=C1c2[nH]nc(-c3ccccc3O)c2C(c2cccc(O)c2)N1Cc1ccncc1` (configuration not stated), the survival was inactive: 90%.

Regarding `O=C(Cn1cc(C(=O)c2ccncc2)c(=O)c2cc(F)ccc21)Nc1ccc(Cl)cc1`, the survival is inactive: 77%.

Turning to `COc1ccccc1CNC(=O)CCn1c(=O)c2ccccc2n(CC(=O)Nc2ccc(Br)cc2F)c1=O`, the survival is inactive: 100%.

Take `Cc1ccc(O)c(NC(=O)c2noc3c2CCCC3)c1`: the survival is inactive: 67%.

`Cc1ccc2c(c1)N(S(=O)(=O)c1cc(-c3onc(C)c3C)ccc1C)CCO2`: the survival was inactive: 97%.

As for `O=C(CN1C(=O)COc2ccc(S(=O)(=O)N3CCCC3)cc21)N1CCN(c2ccc(Cl)cc2)CC1`, the survival is inactive: 129%.

Turning to `COc1cccc(-n2cc(C(=O)OCc3ccc(F)c(F)c3)c3ccccc3c2=O)c1`, the survival is inactive: 71%.

As for `CCCCNc1nc2c(c(=O)n(C)c(=O)n2C)n1CC(O)COc1ccccc1C` (configuration not stated), the survival was inactive: 80%.

Consider `O=C(Nc1ccc(F)c(Cl)c1)C1CCN(S(=O)(=O)c2ccc3[nH]c(=O)ccc3c2)CC1`, for which the survival was inactive: 47%.

As to `COc1ccc(C(=O)Nc2nnc(S(=O)(=O)N3CCCc4ccccc43)s2)cc1`, the survival is inactive: 56%.

With `Cc1ccc2nc(-c3cccc(NC(=O)c4ccc(Br)o4)c3)oc2c1`, the survival is active: 7%.

For the compound `CCOc1ccccc1-n1nnc(-c2nc(-c3ccccc3C)no2)c1C`, the survival was inactive: 72%.

Turning to `Cc1nn(C)c2c1c(C(F)(F)F)cc(=O)n2CC(=O)N1CCCCC1`, the survival is inactive: 67%.

With `O=C(O)c1cccc(Nc2ncnc3ccc(Br)cc23)c1`, the survival is inactive: 127%.

As for `Cc1ccc(C(=O)Nc2nc3n(n2)C(c2ccc(F)cc2)C=C(c2ccccc2)N3)cc1` (configuration not stated), the survival was inactive: 61%.

With `Cc1ccc(Cl)cc1NC(=O)N1CCC(CN2CCCCCC2)CC1`, the survival is inactive: 59%.

In the case of `Cc1ccc(NC(=O)CSc2ccc3nnc(CCNS(=O)(=O)c4ccccc4)n3n2)cc1Cl`, the survival was inactive: 87%.

Consider `Cc1ccccc1NC(=O)c1cccc2c(=O)c3c([nH]c12)CCCC3`, for which the survival was inactive: 80%.

With `CC(C)N(C(=O)CSc1nnc(Cn2nnc3ccccc32)n1C)C(C)C`, the survival is inactive: 102%.

As for `Cc1ccc2cc(CN(C)C(=O)c3cccc(Cl)c3)c(=O)[nH]c2c1`, the survival was inactive: 83%.

Regarding `CCC1CN(C(=O)Nc2cc(C)ccc2OC)c2cc(Cl)ccc2O1` (configuration not stated), the survival was inactive: 82%.

Regarding `CCCCC(=O)OCc1cc(=O)n2nc(C3CCCCC3)sc2n1`, the survival was inactive: 111%.

Regarding `COC(=O)c1ccc(NC(=O)CC2Nc3cc(C)c(C)cc3NC2=O)cc1` (configuration not stated), the survival was inactive: 64%.

For the compound `Cc1cc(C)n(-c2nc3ccccc3nc2Nc2ccc(Cl)c(Cl)c2)n1`, the survival is active: 1%.

For the compound `COc1ccccc1NCc1cccn1-c1nnc(N2CCCCCC2)s1`, the survival is inactive: 60%.

`CNC(=O)c1nc(-c2ccccc2)oc1C`: the survival is inactive: 112%.

In the case of `Cc1cc(C)cc(OCC(=O)NC(Cc2c[nH]c3ccccc23)C(=O)O)c1` (configuration not stated), the survival was inactive: 70%.

For the compound `Cc1cccc(OCC(=O)Nc2c(C(=O)N3CCN(c4ccccc4F)CC3)oc3ccccc23)c1`, the survival was inactive: 83%.

For `COc1ccc(C2c3c(n(C)c4ccccc34)C(=O)N2CC(=O)Nc2cc(Cl)ccc2C)cc1` (configuration not stated), the survival is inactive: 80%.

In the case of `Cc1ccc2onc(CC(=O)Nc3cccc(C(F)(F)F)c3)c2c1`, the survival is inactive: 92%.

As for `CCCc1cc(=O)n2[nH]c(NC(=O)c3ccccc3Cl)nc2n1`, the survival is inactive: 112%.

As for `CCOC(=O)N1CCN(C(=O)CN(c2cccc(Cl)c2)S(=O)(=O)c2ccccc2)CC1`, the survival was inactive: 63%.

With `CCCN(C(=O)c1cc2c(=O)oc3ccccc3c2s1)c1cccc(Cl)c1`, the survival is inactive: 74%.
